# Measured values published in PubChem BioAssay AID445 (National Center for Advancing Translational Sciences (NCATS), 2006).
# “And” between values parts separate entries of the source, which are not always exact repeats. Equal values may be shown once. The whole screen tested about 110,000 compounds, of which about 40 (0.04%) were called active. Inconclusive means that the source gave no clear call. Such entries were picked first, then a sample of the others. Calls follow the shape of the dose curve; as a rule, active = well fitted curve in the direction sought with a large enough effect in the signal ratio (not every such curve was filed as active); inconclusive = small, poorly fitted or top-dose-only effect, or a change in a side signal; inactive = flat fitted curve, though single readings scatter; the % refers to the signal ratio. Potencies of inconclusive entries are doubtful fits and often do not repeat.
# Assay: IkB Signaling;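 as to IkBa stabilization activation: 0% = basal untreated cells and 100% = reference inhibitor full response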
# Conditions: ABC-DLBCL IkBa-CBG/CBR dual luciferase ratio (green luciferase fused to IkBa over red control in OCI-Ly3 lymphoma cells), 4 h, scaled: untreated 0%
# Outline: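 Luminescence ratio of IκBα-fused green versus native red beetle luciferase in OCI-Ly3 cells, 4 h post-doxycycline with compound; red signal alone, scaled from basal (0%) to zero light (-100%), flagged nonspecific or cytotoxic effects.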
# [1] = IkBa stabilization activation: at 57.1 µM (top of the series), proteasome inhibitor 100% unless noted
# Potency is read from the fitted curve at half-maximal effect.
smiles,measurement,setting,value
Cc1cccc(C(=O)N2CCc3cc(CNS(=O)(=O)c4ccc(Cl)s4)ccc32)c1,IkBa stabilization activation,[1],inconclusive: 0.19% [signal inhibitor]
CCCCn1c(NCc2ccc(OC)cc2O)nc2ccccc21,IkBa stabilization activation,[1],inconclusive: 10.8% [signal inhibitor]
CCCCn1nc(NC(=O)c2cccc(Cl)c2)c2cc3ccccc3nc21,IkBa stabilization activation,[1],inconclusive: -1.51% [signal inhibitor]
CCCc1nc2ccccc2n2c(-c3ccccc3)c3c(=O)n(C)c(=O)n(C)c3c12,IkBa stabilization activation,[1],inactive
CN(C)c1ccc(-c2nc(-n3ccnc3)c3ccccc3n2)cc1,IkBa stabilization activation,[1],"inactive: -0.523% [at 11.4 µM, scaled: untreated 0%, proteasome inhibitor 100%]"
CCOc1ccc(NC(=O)c2cnn3c2NC(c2cccc(OC)c2)=CC3c2ccccc2)cc1 (stereo unspecified),IkBa stabilization activation,[1],inconclusive: 1.73% [signal inhibitor]
Cc1ccc(C(=O)Nc2nnc(S(=O)(=O)N3c4ccccc4CC3C)s2)cc1 (stereo unspecified),IkBa stabilization activation,[1],inconclusive: -1.28% [signal inhibitor]
CN(C)c1ncc2nc(-c3ccc(Cl)cc3)c(=O)n(C3CC3)c2n1,IkBa stabilization activation,[1],"inactive: 0.034% [at 11.4 µM, scaled: untreated 0%, proteasome inhibitor 100%]"
Cc1cccc(C(OC(=O)c2ccco2)C(=O)NCc2ccccc2)n1 (stereo unspecified),IkBa stabilization activation,[1],inactive
CC(=O)Nc1ccc(NC(=O)CSc2nc3ccccc3nc2N2CCC(C)CC2)cc1,IkBa stabilization activation,[1],inconclusive: -4.41% [signal inhibitor]
Cc1n[nH]c(C)c1-c1nc2ccccc2[nH]1,IkBa stabilization activation,[1],inactive
Cc1c(C(=O)N2CCCCCC2)c(S(=O)(=O)NCc2ccc(Br)cc2)c(C)n1C,IkBa stabilization activation,[1],inconclusive: 0.0264% [signal inhibitor]
Cc1ccc(-c2nc3ccccn3c2Nc2ccccc2C)s1,IkBa stabilization activation,[1],inconclusive: -1.27% [signal inhibitor]
Cc1ccc2cc(CN(Cc3nnnn3Cc3ccco3)CC3CCCO3)c(=O)[nH]c2c1C (stereo unspecified),IkBa stabilization activation,[1],inconclusive: 1.07% [signal inhibitor]
COC(=O)C1=C(C)NC(C)=C(C(=O)OC)C1c1ccccc1[N+](=O)[O-],IkBa stabilization activation,[1],inconclusive: -4.43% [signal inhibitor]
same,IkBa stabilization activation,"at 25.6 µM (top of the series), proteasome inhibitor 100%",inactive: -3.04%
same,IkBa stabilization activation,"at 57.1 µM (top of the series), proteasome inhibitor 100%",inactive: 2.69% and inactive: 0.137%
CCOC(=O)Nc1cccc(OCC(=O)Nc2ccc(OC)cc2OC)c1,IkBa stabilization activation,[1],inconclusive: 3.05% [signal inhibitor]
CCOc1ccccc1C(=O)Nc1c(C(=O)Nc2ccc(F)cc2)oc2ccccc12,IkBa stabilization activation,[1],inactive
Cc1cc(N2CCC(C(=O)N3CCN(c4cccc(C)c4C)CC3)CC2)n2ncnc2n1,IkBa stabilization activation,[1],inconclusive: 3.93% [signal inhibitor]
O=C(Nc1cccc(NC(=O)c2ccc(-c3cccc(Br)c3)o2)c1)c1ccco1,IkBa stabilization activation,[1],inconclusive: 15.5% [signal inhibitor]
CCOc1ccc(C2Nc3c(C)cccc3-c3cc(C)nn32)cc1 (stereo unspecified),IkBa stabilization activation,[1],inconclusive: 9.18% [signal inhibitor]
Cc1oc2ncnc(N3CCOCC3)c2c1C(=O)N(Cc1ccccc1)C(C)C,IkBa stabilization activation,[1],inactive
CCOC(=O)c1c(NC(=O)c2nn(CC)cc2Br)sc(C)c1C,IkBa stabilization activation,[1],inactive
COc1ccc(NC(=O)c2sc3nc4c(cc3c2N)CCCCCC4)cc1,Potency,[1],"inconclusive: 31.6 µM [rising, single point]"
CCc1ccc(OCC(=O)Nc2cc(-c3ccc(C)cc3)no2)cc1,IkBa stabilization activation,[1],inconclusive: -0.339% [signal inhibitor]
CCOc1ccccc1C(=O)Nc1nncs1,IkBa stabilization activation,[1],inactive
COc1ccc(CNC(=O)CSc2ncc3c(n2)-c2cc(Cl)ccc2N(Cc2ccccc2)S3(=O)=O)cc1,IkBa stabilization activation,[1],inconclusive: 2.02% [signal inhibitor]
O=C(Nc1cccc(C(F)(F)F)c1)N1CCC(c2nc(-c3ccc(F)cc3)no2)CC1,IkBa stabilization activation,[1],inconclusive: 4.51% [signal inhibitor]
CCn1c(SCC(=O)Nc2ccc(Cl)cc2)nnc1C1CC1,IkBa stabilization activation,[1],inconclusive: 10.6% [signal inhibitor]
CCn1c(=O)cc(C(=O)OC)sc1=Nc1ccc(F)c(F)c1,Potency,[1],"inconclusive: 6.31 µM [rising, single point]"
Oc1c(C(c2ccccc2F)N2CCN(c3ccccc3F)CC2)sc2nc(-c3ccco3)nn12 (stereo unspecified),IkBa stabilization activation,[1],inconclusive: 4.58% [signal inhibitor]
Cc1ccccc1N1CCN(S(=O)(=O)c2ccccc2)CC1,IkBa stabilization activation,[1],inconclusive: 3.7% [signal inhibitor]
O=C(Nc1nnc(-c2ccccc2Cl)o1)c1ccco1,Potency,[1],"inconclusive: 20 µM [signal inhibitor, partial curve]"
COc1ccc(C)cc1NS(=O)(=O)c1ccc2c3c(cccc13)C(=O)N2,IkBa stabilization activation,[1],inconclusive: 10.5% [signal inhibitor]
CN(C)CC[C@H](c1ccc(Cl)cc1)c1ccccn1,IkBa stabilization activation,[1],inactive
CCCc1cc(N2CCN(c3cccc(C)c3C)CC2)n2cnnc2n1,IkBa stabilization activation,[1],inconclusive: -1.31% [signal inhibitor]
COc1ccc(CNC(=O)CCC2N=C3c4ccccc4N=C(SCc4ccccc4F)N3C2=O)cc1 (stereo unspecified),IkBa stabilization activation,[1],inactive
COC(=O)c1ccc(NC(=O)CN2CCN(S(=O)(=O)c3ccc(Br)cc3)CC2)cc1,IkBa stabilization activation,[1],inconclusive: -1% [signal inhibitor]
O=C1CCC(=O)N1c1ccccc1-c1ccccc1,Potency,[1],"inconclusive: 25.1 µM [signal inhibitor, partial curve]"
CCOc1ccccc1NS(=O)(=O)c1ccc2[nH]c3c(c2c1)CCCCC3,IkBa stabilization activation,[1],inconclusive: 2.91% [signal inhibitor]
COc1ccc(S(=O)(=O)N(CC(=O)Nc2cc(C)ccc2OC)Cc2ccccc2)cc1,IkBa stabilization activation,[1],inconclusive: 9.72% [signal inhibitor]
CCOc1cc(-c2c(C#N)c(N)nc3c2CCCC3C)ccc1O (stereo unspecified),IkBa stabilization activation,[1],inconclusive: 4.81% [signal inhibitor]
Cc1c(-c2ccc(Cl)cc2)c(=O)oc2c(CN3CCN(CCO)CC3)c(O)ccc12,IkBa stabilization activation,[1],inactive
CCCN(CCC)CCCNC(=O)C1CCN(c2nc3ccc(CC)cc3s2)CC1,IkBa stabilization activation,[1],inconclusive: 7.66% [signal inhibitor]
COC(=O)CSc1nc2c(c(-c3ccc(C)o3)c1C#N)CCCC2,IkBa stabilization activation,[1],inconclusive: 9.33% [signal inhibitor]
